Measurements from PubChem BioAssay (NCI).
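Dose response: 5 concentrations. Exposure: 48 h. Format: 96-well plates. Endpoint: linear interpolation; highest concentration if not reached. GI50 is the concentration that inhibits growth by half. At the TGI there is no net growth.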

Each molecule was assayed on NCI-H322M lung (assay: NCI tumour cell line growth inhibition, 48 h).
In the case of `CC1CCCCN1CCCNC(=O)N/C(N)=N/c1nc2ccccc2s1` (stereo unspecified), the GI50 is reported as 26.8 µM and the TGI is reported as > 100 µM. In the case of `Cc1nc(Nc2ncc(C(=O)Nc3c(C)cccc3Cl)s2)cc(N2CCN(CCCNC(=O)COc3ccc(C4CCC(=O)NC4=O)cc3)CC2)n1` (stereo unspecified), the GI50 is reported as 0.812 µM and the TGI is reported as > 100 µM. For `O=C(CNc1nc(-c2ccccc2)cs1)Nc1ccc(Cl)cc1[N+](=O)[O-]`, the GI50 was 5.44 µM and the TGI was 18.6 µM.
